Paper PMC12136788
The other results are listed elsewhere or left out.

B1: chr3:113978857:113979010:-|three_prime_utr|ENSG00000163617|control|control|control (ssRNA)
RNA: GGGAGUUCUACAGUCCGACGAUCGCAGAAGAACAUUACUCUUUGUUCCUGCAGAGGAAAUACAUGCUGACGUGGUUCCAGCGUAGUCAGGAAAGUCUGGCUAGAAAGAUGGCCCAGGCUGAUCAAUUUUAUUCCCAAAUACUGCAACAGAGGAUUGAGCAUCA
B2: chr1:153662446:153662560:-|CDS|ENSG00000143621|unk|FALSE|unique (ssRNA)
RNA: GGGAGUUCUACAGUCCGACGAUCAAUCACCUUUUUCUCUUUCCUAGAUCUUGCUUCUGAAAUAUCUACCUGGGAUGGAGUGAUAGUAACACCUUCAGAAAAGGCUUAUGAGAAGCCACCAGAGAAGAAGGAAGGAGAGGAAGACAACAGAGGAUUGAGCAUCA
B3: chr5:159157431:159157536:-|3pUTR|ENSG00000145860|unk|total|mutant (ssRNA)
RNA: GGGAGUUCUACAGUCCGACGAUCCAAAAAGUGUUUUUCAGACCUCGGUAUUCCUAAUGUGGGAUGUGACUUUAUUUUAUUUUCCGCCGCAAAUUUGGAUGCCGACUGACAGACACCGCUGAAUGUCUUAAUAAAUUUAAAUUUCAACAGAGGAUUGAGCAUCA
B4: chr4:67508813:67509105:-|CDS|ENSG00000145241|control|control|control (ssRNA)
RNA: GGGAGUUCUACAGUCCGACGAUCAUGCAUCACAAUAGUAGCCGAAAAUCUACUAAGAAAACAAAUCAGUCAUCUAAGAAUAUUAGGAAAAAAACUAUUCCACUUAAAAGGCAGAAGACAGCAACUAAAGGCAACCAAAGAGUACAACAGAGGAUUGAGCAUCA
B5: chr1:150220393:150220494:-|3pUTR|ENSG00000143401|msi1_unk|total|mutant (ssRNA)
RNA: GGGAGUUCUACAGUCCGACGAUCAUUGUAUGCCGAGAAAAAUUUUCAUUGACUCCCAUUGUGGAAUUCCCCCGCAAUUUAUUCCGACUUAAUUUUUUAAAUUCAAGCUUACUGUAUCCGUCAUUUUCCGCCCAUAAUUAAAACCAACAGAGGAUUGAGCAUCA
B6: chr22:46679111:46679212:+|3pUTR|ENSG00000075240|msi1|total|mutant (ssRNA)
RNA: GGGAGUUCUACAGUCCGACGAUCAGGGCCCGGCAGUGCCCAAGGAUGGGUCCGGGGCCUCGGGGCCAAUGAGCGCCUCUUCCCCGGUGCUGGGAUUCAGUCCCCAAACACAGCGGGAGGGGUCCCUGGGGCAGAUGGGGCUUUCAACAGAGGAUUGAGCAUCA
B7: chr3:51993521:51994126:-|three_prime_utr|ENSG00000162244|control|control|control (ssRNA)
RNA: GGGAGUUCUACAGUCCGACGAUCCAGCUUCAGUUCCAGCUCAGGCUCCCAAACGUACCCAGGCCCCUACAAAGGCUUCAGAGUAGAUAUCUCUGCCAACAUGAGGACAGAAGGACUGGUGCGACCCCCCACCCCCGCCCCUGGCAACAGAGGAUUGAGCAUCA
B8: chr1:37566712:37566813:+|3pUTR|ENSG00000163879|unk|total|mutant (ssRNA)
RNA: GGGAGUUCUACAGUCCGACGAUCGCUUUAUUUCCCCCGCACUGGUGAAGGGCUUCAACUGUCAAACCUCAGAACAAAUGCAUCCGGGCCUCCGAAAUGUCAAUGGGGCAGGAAGAAAACACAAUUUCUAACUGCCUGUUUUUGCAACAGAGGAUUGAGCAUCA
B9: chr15:34983303:34983404:-|CDS|ENSG00000198146|msi1|total|mutant (ssRNA)
RNA: GGGAGUUCUACAGUCCGACGAUCGCUGAAAACAAUUUAAAAAUGCUAAAGAUUCAACAGUGUGUGGCCGCCAACAAACUACCCCGAAACAGGCCAUAUGUUUGCAAUAUUUGUUUUAAGCACUUUGAAACACCAUCAAAAUUACAACAGAGGAUUGAGCAUCA
B10: ENSG00000103429:stop:overlap|stop_codon|ENSG00000103429|stop_codon|NA|stop_codon (ssRNA)
RNA: GGGAGUUCUACAGUCCGACGAUCAACUGAAUGUGAACACAGCAGGUGUGAGAUGUCAUCUUGGAAGACAGGCCUUGCAGAAAUAGGCCUACAUCCAAAAUAUUAUCUUGUGACUCCAUGAACCAUUCAUUAACCCUUUGUAUCCAACAGAGGAUUGAGCAUCA
B11: chr7:82953248:82953350:-|CDS|ENSG00000186472|unk|FALSE|unique (ssRNA)
RNA: GGGAGUUCUACAGUCCGACGAUCAACAGAUAUACACCCCAAACCAACAGGCCUAUCUUUAACUUCAAGUAUGACCUUAAAUUUAGUGACUUCAGCAGAUUAUAAAUUGCCUUCCCCUACCUCCCCACUUUCCCCACACUCCAACAACAGAGGAUUGAGCAUCA
B12: ENSG00000079246:stop:overlap|stop_codon|ENSG00000079246|stop_codon|NA|stop_codon (ssRNA)
RNA: GGGAGUUCUACAGUCCGACGAUCGAGACACAGCAGCUGUAUUUGAAGAAGGUGGUGAUGUGGACGAUUUAUUGGACAUGAUAUAGGUCGUGGAUGUAUGGGGAAUCUAAGAGAGCUGCCAUCGCUGUGAUGCUGGGAGUUCUACAACAGAGGAUUGAGCAUCA
B13: chr1:45693489:45693605:+|CDS|ENSG00000159596|unk|total|mutant (ssRNA)
RNA: GGGAGUUCUACAGUCCGACGAUCAAUCCCCUUCGUUGCUCCACCACUGGUCAUGCUGAUGACAAAAACUUAUAUUCCCAUAUCCGCUUUUACUCAGAUGGCUUAUGGAGCCAGUUUCCUAUCUUUCUUGGGUGGGAUCAGAUGCAACAGAGGAUUGAGCAUCA
B14: chr10:72011937:72012038:+|3pUTR|ENSG00000122863|msi1|total|mutant (ssRNA)
RNA: GGGAGUUCUACAGUCCGACGAUCCAUACACCGCAGGUGGUCACCGAGUUAUUUUCCAAAAGCUGAGGAACAUAAAGCAAAUUCCGGCUUUUGUCCUUCUGCAAUACAUGCACUUGAAAAUAAACAGAAAAGAGAUGUUUAAUACAACAGAGGAUUGAGCAUCA
B15: chr8:86558718:86558819:+|3pUTR|ENSG00000085719|unk|total|mutant (ssRNA)
RNA: GGGAGUUCUACAGUCCGACGAUCCUGUUGUUGUUUUUGUUUACUUUCAUAUGAUGAAAAUGCUGUGUUUAAGUGUUUGUCAACCGGAAGAAUGGAAAACUGUUGGGAUGAUGUGGUUUGCAGGUUGCUGUGCCUGAUUCACAGCAACAGAGGAUUGAGCAUCA
B16: chr1:52911722:52912021:-|three_prime_utr|ENSG00000121310|control|control|control (ssRNA)
RNA: GGGAGUUCUACAGUCCGACGAUCGGUUGGGAAAAUUGAGGCCUGCCUGAGUGUGUGACUUGUGGCAAGUCACUCUGGUCAUCUAGGGCAGAGGCUCCCCAGAUCCCAGGCCUCCUGCCUCCAGUCCCCAGCCCGCAGCCCAGGCAACAGAGGAUUGAGCAUCA
B17: chr1:117368288:117368465:+|CDS|ENSG00000198162|unk|FALSE|unique (ssRNA)
RNA: GGGAGUUCUACAGUCCGACGAUCUUUUGGGGCAUUCUUUUUCCUUCCAGACUCUUCAAAACACAAACGCUUUGAUUUGGGUUUAGAAGAUGUGUUAAUUCCACAUGUAGAUGCCGGUAAAGGGGCUAAAAACCCCGGAGUCUUCAACAGAGGAUUGAGCAUCA
B18: chr15:41480918:41481019:+|3pUTR|ENSG00000137815|msi1|FALSE|unique (ssRNA)
RNA: GGGAGUUCUACAGUCCGACGAUCCCUCCCCCAGGGCCCCACCCAGUGUGGGCCUGGGCUCUCUUGGGCUUUAUCCAUGUCUUUAGAUUUGUGUUUGCCUUUUGUUUUUUUAACCGCGCAGUUCAUUGGCCACUCUGCACGCAUCAACAGAGGAUUGAGCAUCA
B19: chr10:30312946:30313047:-|3pUTR|ENSG00000107951|unk|FALSE|unique (ssRNA)
RNA: GGGAGUUCUACAGUCCGACGAUCUCUUAUUCACAUAUAAAUUAAAGUGGGUUGGUACUGAUAUCAAAAAAUGUUUAUGUUUUUAGAACAGACAUUUCAGUCACUGCAUUCUUAGGUAUUCCAAACCAAAUAUGAUGACAUCAACAACAGAGGAUUGAGCAUCA
B20: chr7:73478266:73478367:-|CDS|ENSG00000009954|unk|FALSE|unique (ssRNA)
RNA: GGGAGUUCUACAGUCCGACGAUCGAGUGGCUCGCCACUCAAAGUGAAGAACUCAAAGAAUUCCAAAUCUCCUGAAGAACAUCUAGAAGAAAUGAUGAAGAUGAUGUCGCCCAAUAAGCUGCACACUAACUUUCACAUUCCUAACAACAGAGGAUUGAGCAUCA
B21: chr10:71816509:71816622:-|3pUTR|ENSG00000197746|msi1_unk|FALSE|overlapping (ssRNA)
RNA: GGGAGUUCUACAGUCCGACGAUCUGCCUACAUGUCCCUGGCUGUUGAGGCGCUGCUUCAGCCUGCACCCCUCCCUUGUCUCAUAGAUGCUCCUUUUGACCUUUUCAAAUAAAUAUGGAUGGCGAGCUCCUAGGCCUCUGGCUUCAACAGAGGAUUGAGCAUCA
B22: ENSG00000136451:be:win_851|CDS|ENSG00000136451|bound_else_gene|NA|bound_elsewhere_windowed (ssRNA)
RNA: GGGAGUUCUACAGUCCGACGAUCAAGGCAAGGUAUCAUGUAACAUCUGUGGGAAGCUCCUGAGUGCAGCAUACAUCACCAGCCACUUAAAGACUCAUGGGCAGAGCCAAAGUAUCAACUGUAAUACAUGUAAACAAGGCAUCACAACAGAGGAUUGAGCAUCA

What follows are binders tested against MSI1 full-length (mouse, UniProt Q61474 1-362) (assay: nsRBNS (natural sequence RNA bind-n-seq); RBNS binding buffer (assumed for nsRBNS): 25 mM Tris pH 7.5, 150 mM KCl, 3 mM MgCl2, 0.01% Triton X-100, 500 ug/ml BSA, 20 U/ml SUPERase-In, 4 C; UNK is unkempt and MSI1 is Musashi-1; names of the RNAs are library labels; protein concentration not given here; high values mean tight binding).
Chain of UniProt Q61474 (Q61474 whole entry): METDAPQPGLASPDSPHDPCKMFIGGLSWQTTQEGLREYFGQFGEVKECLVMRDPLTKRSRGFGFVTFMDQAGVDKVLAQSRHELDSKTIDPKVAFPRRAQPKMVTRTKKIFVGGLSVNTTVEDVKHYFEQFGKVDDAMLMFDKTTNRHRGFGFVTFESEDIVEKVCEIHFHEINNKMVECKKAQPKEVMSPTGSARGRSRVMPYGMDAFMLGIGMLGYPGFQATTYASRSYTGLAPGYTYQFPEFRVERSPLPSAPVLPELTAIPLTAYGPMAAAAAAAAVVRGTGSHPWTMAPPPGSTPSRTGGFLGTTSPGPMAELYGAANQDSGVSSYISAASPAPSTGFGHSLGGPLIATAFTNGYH

Which binding signal does the source give for B1 here?
The binding signal was 0.403 enrichment R.

How did the binding signal turn out when B2 was run?
The binding signal was 0.576 enrichment R.

With B3 as the binder, how does the binding signal read?
The binding signal was 0.361 enrichment R.

How did the binding signal turn out when B4 was run?
The binding signal was 1.28 enrichment R.

For B5, which binding signal is on record?
Its binding signal is 2.27 enrichment R.

Which binding signal does the source give for B6 here?
Its binding signal is 0.331 enrichment R.

With B7 as the binder, how does the binding signal read?
The binding signal was 0.728 enrichment R.

With B8 as the binder, how does the binding signal read?
The binding signal was 0.361 enrichment R.

How did the binding signal turn out when B9 was run?
Its binding signal is 0.274 enrichment R.

B10 was tested. Which binding signal did it give?
Its binding signal is 0.579 enrichment R.

With B11 as the binder, how does the binding signal read?
The binding signal was 2.9 enrichment R.

Which binding signal does the source give for B12 here?
Its binding signal is 0.303 enrichment R.

Which binding signal does the source give for B13 here?
The binding signal was 0.439 enrichment R.

For B14, which binding signal is on record?
Its binding signal is 0.277 enrichment R.

Which binding signal does the source give for B15 here?
Its binding signal is 0.342 enrichment R.

How did the binding signal turn out when B16 was run?
The binding signal was 0.439 enrichment R.

B17 was tested. Which binding signal did it give?
Its binding signal is 0.251 enrichment R.

For B18, which binding signal is on record?
The binding signal was 0.743 enrichment R.

How did the binding signal turn out when B19 was run?
The binding signal was 1.59 enrichment R.

B20 was tested. Which binding signal did it give?
The binding signal was 0.171 enrichment R.

How did the binding signal turn out when B21 was run?
Its binding signal is 0.548 enrichment R.

How did the binding signal turn out when B22 was run?
The binding signal was 0.517 enrichment R.
